In all, about 50,000 compounds went through this assay and about 800 (1.6%) showed an effect of 50% or more. The list shows a part of the results.

In the assay the target is Bcl-2-like protein 10 (Homo sapiens) (UniProt Q9HD36). Description: Phenotype converters, Bcl-B/TR3 peptide binding displacement, primary biochemical FP (AID 1240).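 Also: 0% = Bcl-B with tracer peptide and DMSO and 100% = tracer peptide lacking Bcl-B.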 Conditions: GST-Bcl-B / FITC-TR3 peptide fluorescence polarization; stronger effect = higher value; compound at 3.75 mg/L.
Chain of UniProt Q9HD36 (Q9HD36 whole entry, looked up): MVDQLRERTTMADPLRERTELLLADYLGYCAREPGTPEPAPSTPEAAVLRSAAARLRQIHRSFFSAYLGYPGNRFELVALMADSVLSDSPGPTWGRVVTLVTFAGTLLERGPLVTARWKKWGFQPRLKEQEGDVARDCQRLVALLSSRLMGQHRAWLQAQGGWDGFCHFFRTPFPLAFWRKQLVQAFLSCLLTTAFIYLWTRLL
Regarding `COc1ccc(OCCCCOc2ccccc2)cc1`, the displacement stood at 8.4%.

For `COC(=O)c1ccccc1NC(=O)CN(c1ccc(OC)cc1OC)S(=O)(=O)c1ccc(C)cc1`, the displacement was 0.1%.

As to `Cc1ccc(-c2csc(NC(=O)c3ccc4c(c3)OCO4)n2)cc1`, the displacement is 5.2%.

For the compound `O=[N+]([O-])c1ccc(N2CCOCC2)nc1`, the displacement is 4.2%.

Take `Cc1ccc(O)c(NC(=O)c2cnn3c(C(F)(F)F)cc(-c4cccs4)nc23)c1`: the displacement is -7.5%.

Regarding `CC(=O)NS(=O)(=O)c1ccc(NC(=O)C(C)(C)C)cc1`, the displacement is 1.4%.

Take `Cc1ccccc1NC(=O)C(=O)NCCc1ccccc1`: the displacement was determined as 2.8%.

As for `CCc1ccc(NC(=O)c2ccc(-c3ccccc3)cc2)cc1`, the displacement was determined as 13.5%.

Consider `O=C(Cn1nnc(-c2ccccc2)n1)N/N=C/c1c(F)cccc1Cl`, for which the displacement is -9.6%.

On to `O=C(CN1CCCCC1)n1c2c(c3ccccc31)CCCC2`, for which the displacement was determined as 5.1%.

For `CC(C(=O)N1CCOCC1)N1C(=O)c2cccc3cccc(c23)C1=O` (stereo not given), the displacement worked out at 10.5%.

As for `Cc1c(C#N)c(N=CN(C)C)c(C#N)n1-c1ccccc1`, the displacement is -3.3%.

In the case of `Oc1ccc(C=NCC2COc3ccccc3O2)cc1` (stereo not given), the displacement was 13.1%.

On to `COc1cc(/C=N\Nc2nc3ccccc3[nH]2)cc(OC)c1OC`, for which the displacement amounted to 1.2%.

`CCC1=NN2C(=N)/C(=C/c3ccc(-c4ccc([N+](=O)[O-])cc4Cl)o3)C(=O)N=C2S1`: the displacement worked out at 15.1%.

As for `O=C1CC(c2ccccc2Cl)CC2=C1C(c1ccsc1)Nc1ccccc1N2` (stereo not given), the displacement came out at 8.8%.

As for `Cn1c(=O)n(Cc2ccc(Cl)cc2)c2ccccc21`, the displacement is -2.6%.

Regarding `C=CCOC(=O)C1=C(C)NC2=C(C(=O)CC(C)(C)C2)C1c1cccc(Cl)c1Cl` (stereo not given), the displacement turned out to be 2.7%.

As to `O=C(O)CCN1C(=O)c2ccc(C(=O)c3cccc([N+](=O)[O-])c3)cc2C1=O`, the displacement came out at 8.8%.

On to `C=CCC1(C#N)C(=S)NC2=C(C(=O)CC(C)(C)C2)C1c1ccc(Br)cc1` (stereo not given), for which the displacement is 8.2%.

As for `O=C(COc1ccccc1[N+](=O)[O-])Nc1ccc(Cl)cn1`, the displacement is -2.4%.

Take `COc1ccc(C(=O)Nc2nc3ccc(Br)cc3s2)cc1`: the displacement amounted to 1.9%.

In the case of `COc1cc(/C=N/N2C(=O)CSC2=S)ccc1OCCOc1cc(C)ccc1C(C)C`, the displacement was -1.1%.

With `O=C(Cc1ccccc1)Nc1ccc(SC(F)(F)C(F)(F)C(F)(F)F)cc1`, the displacement was -17.7%.

On to `NS(=O)(=O)c1ccc(CCNC(=O)c2cccs2)cc1`, for which the displacement came out at 5.4%.

As to `O=C(Nc1cccc(Cl)c1)OCc1ccccc1F`, the displacement is -6.6%.

With `Cc1c(NC(=O)CN(c2ccc(Oc3ccccc3)cc2)S(C)(=O)=O)c(=O)n(-c2ccccc2)n1C`, the displacement stood at 11%.

Consider `NC(N)=NS(=O)(=O)c1ccc(NC(=O)c2cccc([N+](=O)[O-])c2)cc1`, for which the displacement came to 6.7%.

As to `C=CCN1C(=O)/C(=C/c2ccc(N(C)C)cc2)C(=O)NC1=S`, the displacement was -3.8%.

For the compound `COc1cc(C(=O)NC(NC(=S)Nc2cccc([N+](=O)[O-])c2)C(Cl)(Cl)Cl)cc(OC)c1OC` (stereo not given), the displacement was determined as 1.6%.

Take `Cc1ccc(N2C(=O)c3ccc(C(=O)Nc4cccc(C)c4C)cc3C2=O)c(C)c1`: the displacement came out at 6.6%.

For `O=c1c2c3c(sc2ncn1/N=C/c1ccco1)CCCC3`, the displacement worked out at 10%.

On to `NC(=O)CCn1c(=S)n(CCC(N)=O)c2ccccc21`, for which the displacement was -2.4%.

Take `COC(=O)C1CC(C)=CC(C)C1C(=O)O` (stereo not given): the displacement was 1.4%.

For the compound `CC1(C)Cc2c(sc(NC(=O)c3ccc(Cl)cc3)c2C#N)CO1`, the displacement was -5.4%.

On to `C=CCc1ccccc1OCCOc1ccccc1/C=C1/SC(=S)N(C)C1=O`, for which the displacement came out at 0.3%.

Take `CC1=NOC(=O)/C1=C\c1ccc(OCc2ccc(Cl)cc2)cc1`: the displacement was found to be 8.7%.

As to `O=C(/C=C\c1ccc(-c2ccc(Br)cc2)o1)N1CCOCC1`, the displacement stood at 1.4%.

Regarding `COc1cc(NC(C)=O)c(Cl)cc1NC(=O)c1ccccc1`, the displacement was found to be 0.1%.

On to `CC1=NN(C(N)=S)C2(O)CC3C(C12)C3(C)C` (stereo not given), for which the displacement was 7.5%.

Turning to `COCCN1C(=O)C(=O)/C(=C(/O)c2ccccc2)C1c1ccc(C)cc1` (stereo not given), the displacement is -4.9%.

For the compound `O=C(COc1ccccc1[N+](=O)[O-])Nc1ccc(Cl)c(-c2nc3ccccc3s2)c1`, the displacement was -2.6%.

As for `CCOc1ccc(CN2CCN(C(=O)c3cccs3)CC2)cc1`, the displacement is -12.3%.

For the compound `COc1ccc(OC)c(N2C(=O)C3C4C=CC(C4)C3C2=O)c1` (stereo not given), the displacement is -9%.

As to `O=C(O)c1ccc(C(=O)Nc2ccccc2Br)c(C(=O)O)c1`, the displacement amounted to 6.5%.

`Cc1ccc(N2CC(C(=O)Nc3ccccc3C)CC2=O)cc1` (stereo not given): the displacement was found to be 9.9%.

With `C=CCn1c(/C=C/c2ccccc2)nc2ccccc21`, the displacement is -4.9%.

`CC(C)c1ccc(/C=C(\C(=O)c2ccccc2Cl)c2nc3ccccc3o2)cc1`: the displacement amounted to 6.4%.

For `O=C1S/C(=C/c2ccc(F)cc2)C(=O)N1CNc1ccc(I)cc1`, the displacement came to 11.9%.

With `CCOC(=O)C1=C(O)/C(=C/c2ccc(Cl)cc2)SC1=Nc1ccc(OC)cc1`, the displacement was determined as 3.1%.

Take `O=C/C(=C\Nc1ccc(Cl)cn1)c1nc2cc(Cl)ccc2o1`: the displacement is -40.6%.

Turning to `O=C(CSc1n[nH]c(-c2ccccc2)n1)Nc1ccccn1`, the displacement was -5.3%.

As to `O=c1[nH]c(/C=C/c2ccco2)nc2ccccc12`, the displacement was found to be 37.8%.

Take `Cc1cc([N+](=O)[O-])ccc1N=Cc1ccc([N+](=O)[O-])s1`: the displacement came out at 6.9%.

For `CN(c1ccc(C(=O)O)cc1)S(=O)(=O)c1ccccc1`, the displacement was determined as 10.9%.

Take `O=C1/C(=C/c2cccc([N+](=O)[O-])c2)SC(=S)N1c1ccc(F)cc1`: the displacement stood at 14.2%.

Take `COc1ccc(CNC(=O)c2cc(OC)cc(OC)c2)cc1`: the displacement worked out at 8.7%.

Turning to `Cc1ccc(C(=O)NCC(=O)c2ccccc2)cc1`, the displacement was found to be 1.2%.

Regarding `COc1ccc(OC)c(S(=O)(=O)N2CCN(C)CC2)c1`, the displacement is -7.7%.

Regarding `O=[N+]([O-])c1ccc(CP(=O)(c2ccccc2)c2ccccc2)cc1`, the displacement was -0.7%.

Take `CCOc1ccc(NC2=C(Cl)C(=O)N(c3cccc(Cl)c3Cl)C2=O)cc1`: the displacement is 16.3%.

As to `COc1ccc(NC(=O)CN2C(=O)c3ccccc3C2=O)cc1O`, the displacement is -3.4%.

Consider `CSc1ccc(CN2CCN(Cc3ccc([N+](=O)[O-])cc3)CC2)cc1`, for which the displacement is 2.5%.

Take `CCC(C(=O)Nc1cccc(C(C)=O)c1)c1ccccc1` (stereo not given): the displacement is 6.9%.

With `CCOc1cc(/C=N/Nc2nncn2N)cc(I)c1O`, the displacement came out at 1.3%.

Consider `CCOC(=O)c1c(NC(=O)C2C3CCC(C3)C2C(=O)O)sc2c1CCC(CC)C2` (stereo not given), for which the displacement is -7.9%.

On to `Cc1ccc(-n2nc3cc(C)c(NC(=O)c4ccco4)cc3n2)cc1`, for which the displacement is 107%.

For `Cc1cccc(/C=N/NC(=O)c2ccc(-c3ccccc3)cc2)c1`, the displacement is -6%.

For the compound `O=S(=O)(c1cc(Cl)ccc1Cl)N1CCN(c2ccc(F)cc2)CC1`, the displacement was -7.1%.

On to `CCN1CCN(Cc2c(C)[nH]c3c(ccc4ccccc43)c2=O)CC1`, for which the displacement came out at 8.8%.
